{"source": "paper PMC4336329", "about": "(PLoS ONE, 2015)", "note": "Hit rate of the full screen: of about 310,000 compounds, about 2,200 (0.71%) showed an effect of 50% or more. The effect is printed as a negative number. The list shows a part of the results."}
{"target": "human ether-à-go-go-related gene (hERG) potassium channel (human, UniProt Q12809)", "sequence (Q12809 whole entry, looked up)": "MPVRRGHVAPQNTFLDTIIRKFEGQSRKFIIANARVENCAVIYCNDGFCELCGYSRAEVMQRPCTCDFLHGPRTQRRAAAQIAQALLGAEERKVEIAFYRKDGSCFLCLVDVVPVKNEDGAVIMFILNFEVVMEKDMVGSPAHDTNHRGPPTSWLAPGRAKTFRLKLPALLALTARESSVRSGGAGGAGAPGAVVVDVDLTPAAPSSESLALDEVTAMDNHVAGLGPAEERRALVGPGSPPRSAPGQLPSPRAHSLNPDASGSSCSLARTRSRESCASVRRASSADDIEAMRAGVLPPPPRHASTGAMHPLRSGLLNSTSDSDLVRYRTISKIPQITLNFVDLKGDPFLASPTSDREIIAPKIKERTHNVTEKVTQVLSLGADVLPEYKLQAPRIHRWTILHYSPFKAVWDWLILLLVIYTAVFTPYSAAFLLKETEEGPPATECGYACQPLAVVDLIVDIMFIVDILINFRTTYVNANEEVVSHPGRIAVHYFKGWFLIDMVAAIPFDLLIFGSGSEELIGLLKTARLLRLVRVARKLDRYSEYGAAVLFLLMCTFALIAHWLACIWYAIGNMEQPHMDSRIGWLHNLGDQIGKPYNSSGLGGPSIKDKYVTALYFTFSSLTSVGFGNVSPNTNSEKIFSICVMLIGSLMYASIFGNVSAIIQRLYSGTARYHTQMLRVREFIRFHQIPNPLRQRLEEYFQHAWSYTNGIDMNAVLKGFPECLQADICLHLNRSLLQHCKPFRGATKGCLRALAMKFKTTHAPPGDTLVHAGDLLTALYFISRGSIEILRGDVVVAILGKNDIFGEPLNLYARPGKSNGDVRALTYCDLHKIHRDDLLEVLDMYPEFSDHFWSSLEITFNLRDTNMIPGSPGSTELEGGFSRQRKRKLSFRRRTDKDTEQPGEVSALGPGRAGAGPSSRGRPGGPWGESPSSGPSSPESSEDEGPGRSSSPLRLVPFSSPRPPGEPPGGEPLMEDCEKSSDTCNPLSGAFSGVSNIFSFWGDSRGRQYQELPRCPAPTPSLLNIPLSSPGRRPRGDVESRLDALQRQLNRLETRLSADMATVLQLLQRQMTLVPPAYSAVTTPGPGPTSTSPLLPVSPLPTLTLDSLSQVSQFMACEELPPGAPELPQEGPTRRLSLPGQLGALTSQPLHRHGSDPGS", "test": "primary screen, population patch clamp on CHO cells stably expressing hERG", "units": {"hERG current change (%, negative = inhibition) at 1uM": "%"}}
{"smiles": "C/C(=C\\c1cc2ccccc2o1)C1Nc2cccc3cccc(c23)N1", "hERG current change (%, negative = inhibition) at 1uM": 16.2}
{"smiles": "Cc1c(Cl)cccc1NC(=O)CNC(=O)Cc1c[nH]c2ccccc12", "hERG current change (%, negative = inhibition) at 1uM": 4}
{"smiles": "O=C(Nc1cccc(Cl)c1)NC1CC2CCC(C1)N2Cc1ccco1", "note": "(centres unmarked)", "hERG current change (%, negative = inhibition) at 1uM": 11}
{"smiles": "Cc1nnc(SCC(=O)Nc2cc(S(=O)(=O)N3CCCC3)ccc2Cl)s1", "hERG current change (%, negative = inhibition) at 1uM": 6.9}
{"smiles": "Cc1ccccc1CC(=O)Nc1cccc(S(=O)(=O)N2CCCC2)c1", "hERG current change (%, negative = inhibition) at 1uM": 5.61}
{"smiles": "O=C(O)c1ccc(S(=O)(=O)N(Cc2ccccc2)Cc2ccccc2)cc1", "hERG current change (%, negative = inhibition) at 1uM": 14.8}
{"smiles": "CC(NC(=O)c1ccco1)C(c1cccs1)N1CCN(c2ccccc2)CC1", "note": "(centres unmarked)", "hERG current change (%, negative = inhibition) at 1uM": 0.732}
{"smiles": "COc1ccc(-c2nc3ccc(C(=O)NCCCN4CCOCC4)cc3nc2-c2ccc(OC)cc2)cc1", "hERG current change (%, negative = inhibition) at 1uM": 13.9}
{"smiles": "Cl.Clc1ccccc1CSC1=NCCCN1", "hERG current change (%, negative = inhibition) at 1uM": 6.63}
{"smiles": "O=C(O)CCN1C(=O)C2CCCCC2C1=O", "note": "(centres unmarked)", "hERG current change (%, negative = inhibition) at 1uM": 8.44}
{"smiles": "COc1ccc(C(C)=O)c2c(O)cccc12", "hERG current change (%, negative = inhibition) at 1uM": -1.46}
{"smiles": "CCC(C)(C(=O)NC1CCCCC1)N(Cc1cccs1)C(=O)c1ccccn1", "note": "(centres unmarked)", "hERG current change (%, negative = inhibition) at 1uM": 10.9}
{"smiles": "COc1ccc2oc(C(=O)OCC(=O)Nc3ccccc3OC)c(C)c2c1", "hERG current change (%, negative = inhibition) at 1uM": 8.27}
{"smiles": "CCCc1nc2nc(C)c(NS(=O)(=O)c3ccc(Cl)cc3)c(=O)n2[nH]1", "hERG current change (%, negative = inhibition) at 1uM": 15.2}
{"smiles": "CN1CCN(c2ccc(NC(=O)c3ccccc3)cc2)CC1", "hERG current change (%, negative = inhibition) at 1uM": 11.5}
{"smiles": "CCOC(=O)c1nnc(-c2ccc(C)cc2)nc1N1CCSCC1", "hERG current change (%, negative = inhibition) at 1uM": 0.946}
{"smiles": "CC1CCN(CCCNC(=O)c2ccc3c(=O)n(Cc4ccc(Cl)cc4)c(=S)[nH]c3c2)CC1", "hERG current change (%, negative = inhibition) at 1uM": -2.68}
{"smiles": "CCOc1ccccc1Nc1cc(C)nc2ccc(C)cc12", "hERG current change (%, negative = inhibition) at 1uM": -20.5}
{"smiles": "CCCCc1ccc(NC(=S)Nc2ccc(Nc3ccc(OC)cc3)cc2)cc1", "hERG current change (%, negative = inhibition) at 1uM": 10.6}
{"smiles": "Cc1nc([N+](=O)[O-])cn1CCCCN1C(=O)c2ccccc2C1=O", "hERG current change (%, negative = inhibition) at 1uM": 12.2}
{"smiles": "CC(=O)CCC(=O)c1ccc2ccccc2c1", "hERG current change (%, negative = inhibition) at 1uM": 0.236}
{"smiles": "N#CC(C(=O)O)=C1CCCC1", "hERG current change (%, negative = inhibition) at 1uM": -7.66}
{"smiles": "Cc1cc(C)cc(OCc2ccc(C(=O)N3N=C(C(F)F)CC3(O)C(F)F)o2)c1", "note": "(centres unmarked)", "hERG current change (%, negative = inhibition) at 1uM": -0.0387}
{"smiles": "c1ccc(-c2cc3ncccc3cn2)cc1", "hERG current change (%, negative = inhibition) at 1uM": 15.1}
{"smiles": "Cc1cccc(C(=O)Nc2c3c(nn2C(C)(C)C)CS(=O)(=O)C3)c1", "hERG current change (%, negative = inhibition) at 1uM": 10.2}
{"smiles": "O=C(CC(c1ccccc1)c1cc(Cl)ccc1O)NCCN1CCOCC1", "note": "(centres unmarked)", "hERG current change (%, negative = inhibition) at 1uM": -1.95}
{"smiles": "C=CCn1c(O)c(C(C)=NCc2cc(OC)cc(OC)c2)c(=O)[nH]c1=O", "hERG current change (%, negative = inhibition) at 1uM": 4.32}
{"smiles": "Cc1ccc(CSCC(Nc2ccc(C(=O)O)cc2[N+](=O)[O-])C(=O)O)cc1", "note": "(centres unmarked)", "hERG current change (%, negative = inhibition) at 1uM": 4.33}
{"smiles": "Cc1ccc(OS(=O)(=O)c2ccccc2)c(/C=N/N=C2\\NC(=O)C(C)S2)c1", "note": "(centres unmarked)", "hERG current change (%, negative = inhibition) at 1uM": 6.93}
{"smiles": "CC(C)(C)c1ccc(OCC(O)CN2CCOCC2)cc1", "note": "(centres unmarked)", "hERG current change (%, negative = inhibition) at 1uM": 7.24}
{"smiles": "COc1cccc(NC(=O)CCC2CCN(C(=O)C3CC=CCC3)CC2)c1", "note": "(centres unmarked)", "hERG current change (%, negative = inhibition) at 1uM": 8.62}
{"smiles": "COc1cc(NC(=O)CSCC(=O)N(C)C2CCCCC2)cc(OC)c1", "hERG current change (%, negative = inhibition) at 1uM": 12.7}
{"smiles": "O=C(Nc1ccccc1F)c1ccc2snnc2c1", "hERG current change (%, negative = inhibition) at 1uM": 13.8}
{"smiles": "CS(=O)(=O)N1CCN(c2cnn(-c3ccccc3)c(=O)c2Cl)CC1", "hERG current change (%, negative = inhibition) at 1uM": 8.33}
{"smiles": "Cc1ccccc1C(=O)Nc1cccc(NC(=S)NC(=O)c2cccs2)c1", "hERG current change (%, negative = inhibition) at 1uM": 11.6}
{"smiles": "Cc1ccc(C(=O)N(CC#N)CC#N)cc1C", "hERG current change (%, negative = inhibition) at 1uM": 5.95}
{"smiles": "O=C(N1CCCCC1)N1CCN(C(c2ccccc2)c2ccccc2)CC1", "hERG current change (%, negative = inhibition) at 1uM": 3.73}
{"smiles": "CCc1ccccc1OCC(=O)Nc1cccc(S(=O)(=O)NCc2ccco2)c1", "hERG current change (%, negative = inhibition) at 1uM": 2.82}
{"smiles": "CCOC(=O)c1ccccc1NC(=O)[C@@H]1CCCN1C(=O)OC(C)(C)C", "hERG current change (%, negative = inhibition) at 1uM": 3.14}
{"smiles": "COc1cccc(COC(=O)c2cc(S(=O)(=O)N3CCCCC3)ccc2N2CCOCC2)c1OC", "hERG current change (%, negative = inhibition) at 1uM": 20.2}
{"smiles": "COc1ccc(C(=O)Nc2nc3ccccc3[nH]2)cc1OC", "hERG current change (%, negative = inhibition) at 1uM": -2.31}
{"smiles": "Cc1ccc(S(=O)(=O)NCC(=O)N2CCCC2)cc1", "hERG current change (%, negative = inhibition) at 1uM": 6.85}
{"smiles": "Cc1ccc(C(=O)NC(=S)Nc2nc(-c3cccc([N+](=O)[O-])c3)cs2)c(Cl)c1", "hERG current change (%, negative = inhibition) at 1uM": 7.88}
{"smiles": "Cc1nc(SC2CC(=O)N(c3ccccc3)C2=O)n[nH]1", "note": "(centres unmarked)", "hERG current change (%, negative = inhibition) at 1uM": 9.52}
{"smiles": "CCOc1ccc(C(=O)Nc2nccs2)cc1[N+](=O)[O-]", "hERG current change (%, negative = inhibition) at 1uM": 8.26}
{"smiles": "O=C(CSc1nnc(-c2cccnc2)o1)Nc1ccccn1", "hERG current change (%, negative = inhibition) at 1uM": 4.97}
{"smiles": "CCOC(=O)c1c(C)n(Cc2ccc(F)cc2)c2ccc(O)cc12", "hERG current change (%, negative = inhibition) at 1uM": 3.25}
{"smiles": "O=C(CC(c1ccccc1)c1ccccc1)Nc1ncn[nH]1", "hERG current change (%, negative = inhibition) at 1uM": 8.62}
{"smiles": "Cn1cc(S(=O)(=O)NCc2ccco2)c(=O)n(C)c1=O", "hERG current change (%, negative = inhibition) at 1uM": -1.91}
{"smiles": "CC(C)NC(=O)CCn1c(=S)oc2ccccc21", "hERG current change (%, negative = inhibition) at 1uM": 3.63}
{"smiles": "Cc1cc(C)cc(NC(=O)N2c3ccccc3NC(=O)CC2C)c1", "note": "(centres unmarked)", "hERG current change (%, negative = inhibition) at 1uM": 10.3}
{"smiles": "O=C(CN1CCC(Cc2ccccc2)CC1)Nc1ccc2c(c1)OCCO2", "hERG current change (%, negative = inhibition) at 1uM": 4.99}
{"smiles": "Cc1[nH]c2ccccc2c1C(=O)C(=O)NCCCn1ccnc1", "hERG current change (%, negative = inhibition) at 1uM": 9.93}
{"smiles": "Fc1ccc2nc3c(nc2c1)CCCC3", "hERG current change (%, negative = inhibition) at 1uM": 6.91}
{"smiles": "OCCN=C(c1ccccc1)C12CN3CN(CN(C3)C1)C2", "hERG current change (%, negative = inhibition) at 1uM": -8.38}
{"smiles": "CC1(C)C2CCC(C2)C1(C)N=C1OC(CCl)CS1", "note": "(centres unmarked)", "hERG current change (%, negative = inhibition) at 1uM": 11.7}
{"smiles": "C[C@H](NC(=O)c1ccco1)C(=O)Nc1cccc([N+](=O)[O-])c1", "hERG current change (%, negative = inhibition) at 1uM": 9.59}
{"smiles": "Cc1oc2c(cc(NS(=O)(=O)c3cccs3)c3ccccc32)c1C(=O)OC(C)C", "hERG current change (%, negative = inhibition) at 1uM": 10.3}
{"smiles": "CCCS(=O)(=O)N1CCN(C2Cc3ccccc3C2)CC1.O=C(O)C(=O)O", "hERG current change (%, negative = inhibition) at 1uM": 5.42}
